Reference: PMC4336329 (PLoS ONE, 2015)
Screen size: about 310,000 compounds; about 14,000 (4.5%) showed an effect of 50% or more. The effect is printed as a negative number. This is one part of the list.

Each molecule was assayed against human ether-à-go-go-related gene (hERG) potassium channel (human, UniProt Q12809) (assay: primary screen, population patch clamp on CHO cells stably expressing hERG).
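Also: peak tail current of the secondary pulse compared with the same well before compound.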

human ether-à-go-go-related gene (hERG) potassium channel, sequence (Q12809 whole entry, looked up): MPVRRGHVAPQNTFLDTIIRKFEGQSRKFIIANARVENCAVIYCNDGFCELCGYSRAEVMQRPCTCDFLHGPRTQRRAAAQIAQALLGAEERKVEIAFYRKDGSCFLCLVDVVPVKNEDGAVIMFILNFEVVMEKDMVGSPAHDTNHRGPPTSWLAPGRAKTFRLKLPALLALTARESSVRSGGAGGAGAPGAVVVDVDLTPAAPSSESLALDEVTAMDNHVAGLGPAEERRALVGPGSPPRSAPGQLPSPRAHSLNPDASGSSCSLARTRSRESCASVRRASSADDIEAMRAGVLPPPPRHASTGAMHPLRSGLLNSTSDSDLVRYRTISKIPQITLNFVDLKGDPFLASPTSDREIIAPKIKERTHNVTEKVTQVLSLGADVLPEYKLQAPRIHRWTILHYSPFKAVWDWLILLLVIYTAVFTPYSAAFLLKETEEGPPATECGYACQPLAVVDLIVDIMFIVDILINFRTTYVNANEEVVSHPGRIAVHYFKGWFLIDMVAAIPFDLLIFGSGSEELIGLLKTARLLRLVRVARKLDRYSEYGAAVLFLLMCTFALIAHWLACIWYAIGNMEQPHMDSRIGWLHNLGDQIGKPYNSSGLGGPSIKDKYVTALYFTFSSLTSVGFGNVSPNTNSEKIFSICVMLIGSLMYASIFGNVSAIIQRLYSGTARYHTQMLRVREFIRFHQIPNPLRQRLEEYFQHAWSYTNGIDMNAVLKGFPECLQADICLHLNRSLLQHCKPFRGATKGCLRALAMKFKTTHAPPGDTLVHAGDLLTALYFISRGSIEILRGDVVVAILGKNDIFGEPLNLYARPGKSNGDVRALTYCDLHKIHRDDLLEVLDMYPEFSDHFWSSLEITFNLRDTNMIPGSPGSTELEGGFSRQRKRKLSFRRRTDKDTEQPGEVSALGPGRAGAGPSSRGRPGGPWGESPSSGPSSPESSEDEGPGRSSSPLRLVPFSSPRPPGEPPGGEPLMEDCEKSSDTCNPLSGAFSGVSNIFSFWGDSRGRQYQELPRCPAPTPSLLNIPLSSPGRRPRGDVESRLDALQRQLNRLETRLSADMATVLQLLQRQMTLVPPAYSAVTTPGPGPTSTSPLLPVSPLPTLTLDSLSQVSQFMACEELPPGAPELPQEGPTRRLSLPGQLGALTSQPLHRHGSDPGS

Row | Compound | hERG current change (%, negative = inhibition) at 10uM
1 | NNC(=O)c1snnc1-c1ccccc1 | 12.9%
2 | COC(=O)c1cc(OC)nc(OC)c1 | 22.1%
3 | Cc1ccc(N2C(=O)c3ccccc3C2Nc2ccc(S(=O)(=O)N3CCCCC3)cc2)nc1 (stereo not drawn) | -2.37%
4 | COc1ccc(S(=O)(=O)NNC(=O)Nc2ccccc2OC)c(OC)c1 | 16.3%
5 | CCSc1nnc(NC(=O)C2CCCN(S(=O)(=O)c3cnc[nH]3)C2)s1 (stereo not drawn) | -1.36%
6 | Cc1ccccc1CC(=O)N1CCN(C(=O)C2CCCO2)CC1 (stereo not drawn) | 22.8%
7 | Cc1nc(-c2nnc(-c3ccccc3)o2)c(C(F)(F)F)o1 | 7.01%
8 | N=C1/C(=C\c2coc3ccccc3c2=O)C(=O)N=C2SC=CN12 | 15.3%
9 | CCOc1ccccc1NC(=O)CNC(=O)N1CC(=O)Nc2ccccc21 | 11%
10 | S=C(NCCc1ccc(Cl)cc1)Nc1ccc(Cl)cc1Cl | -3.8%
11 | CC1CCC2(CC1)NC(=O)N(CC(=O)c1ccc[nH]1)C2=O (stereo not drawn) | 0.171%
12 | CC(=O)N1c2ccc(S(=O)(=O)N3CCCCC3)cc2CC1C(=O)NCc1cccc(Cl)c1 (stereo not drawn) | -38.4%
13 | COc1ccc(OC)c(S(=O)(=O)NC(N)=NCCc2ccccc2)c1 | 5.18%
14 | COc1ccc(C2=NS(=O)(=O)N(C)C(C(=O)NCc3ccc(F)cc3)=C2)cc1OC | -59%
15 | CC(C)c1ccc(C(=O)NCCCNC(=O)c2cnccn2)cc1 | 3.64%
16 | Cc1ccc(NC(=O)CC2Oc3ccc(C)cc3NC2=O)c(C)c1 (stereo not drawn) | 14.5%
17 | COc1cccc(CN(C)CC(=O)Nc2sc3c(c2C#N)CCC3)c1 | 8.07%
18 | CC1CC(C)CN(S(=O)(=O)N2CCCC(C(=O)NCc3ccccc3Cl)C2)C1 (stereo not drawn) | 17.5%
19 | O=C(OCc1cnc(Cl)s1)c1c(F)cccc1F | 28.7%
20 | CC(SC1=NCCS1)C(=O)Nc1nnc(-c2ccc(Br)cc2)s1 (stereo not drawn) | -17.1%
21 | O=C(NC(=S)Nc1cccc2ncccc12)c1ccco1 | 9.21%
22 | COc1ccc(NC(=O)/C(=C/c2cccs2)NC(=O)c2ccco2)cc1 | -21.1%
23 | CC(C)(C)c1ccc(OCCCNC2CCCC2)cc1.O=C(O)C(=O)O | -54.5%

Row | Compound | hERG current change (%, negative = inhibition) at 10uM
24 | CCC(=O)c1ccc(OC(=O)N(C)c2ccccc2)cc1 | 12.7%
25 | COc1ccc(CNC(=O)CCCNS(=O)(=O)c2cccc3nonc23)cc1 | -1.27%
26 | CCCCCCN=C(C)c1c(O)n(Cc2ccccc2)c(=O)[nH]c1=O | -9.6%
27 | CCc1c(C)nc(N2CCN(c3ccc(F)cc3)CC2)[nH]c1=O | 16.1%
28 | COc1ccc(CCNC(=O)Nc2cccs2)c(OC)c1 | 14.6%
29 | COc1ccccc1C(=O)Nc1ccnn1C1CCN(C(=O)c2ccoc2C)CC1 | -62.9%
30 | Cc1ccc(CNC(=O)C(C(=O)NCc2ccc(C)o2)c2ncc(C(F)(F)F)cc2Cl)o1 | 13.6%
31 | CCCc1nc2ccccc2n1CCOc1ccccc1 | -27.1%
32 | CCc1ccc(-c2nc(SCC(=O)NC3CCCC3)n[nH]2)cc1 | -1.01%
33 | CC1(C)CC2CC(C)(CN2c2ncnc3ccccc23)C1 (stereo not drawn) | -44.3%
34 | CCN(CC(=O)NCc1cccs1)C(=O)CCC(=O)c1ccc(F)cc1 | -49.7%
35 | CC(=O)N1CCN(c2ccc(NC(=S)NC(=O)c3ccccc3)cc2)CC1 | 2.73%
36 | CCN1CCc2nc(N)oc2CC1.Cl | 1.67%
37 | C/C(=N\NC(=O)c1nnn(-c2nonc2N)c1-c1cccs1)c1ccc(C)cc1 | -0.452%
38 | Cc1ccc(S(=O)(=O)n2c(C)nc3cc(C)ccc32)cc1 | -3.01%
39 | O=C(COc1cccc2ccccc12)N1CCN(c2ccccc2)CC1 | 7.7%
40 | CC(C)CC(c1nnnn1Cc1ccco1)N1CCN(c2cccc(Cl)c2)CC1 (stereo not drawn) | 6.99%
41 | COc1ccc(NC(=O)CSc2nc(-c3ccco3)nc3cc(=O)[nH]n23)cc1Cl | 8.71%
42 | O=C(CN1CCOC1=O)N1CCCC(N2CCN(c3cccc(C(F)(F)F)c3)CC2)C1 (stereo not drawn) | -1.16%
43 | COc1cc(S(=O)(=O)Nc2ccccn2)ccc1F | 20.2%
44 | CC(=O)OCC(=O)N1CCN(c2ccc([N+](=O)[O-])cc2)CC1 | -63.3%
45 | O=C(CCN=C1NS(=O)(=O)c2ccccc21)Nc1ccc(Cl)cc1F | 4.94%
46 | Cc1cc(NC(=O)Nc2ccc(Cl)c(Cl)c2)no1 | 12.2%

Row | Compound | hERG current change (%, negative = inhibition) at 10uM
47 | COc1ccc(/C=N/NC(=S)Nc2ccccc2)cc1 | 24.3%
48 | COc1ccc(CCN=C(N)NS(=O)(=O)c2ccc(OC)c(OC)c2)cc1OC | 1.58%
49 | C=CCNC(=S)NNC(=O)Cn1c(-c2ccccc2)cc(=O)n2ncnc12 | 18.5%
50 | O=C(c1cccc([N+](=O)[O-])c1)c1ccc2[nH]c(=O)[nH]c2c1 | 17.8%
51 | O=S(=O)(/N=C(/NC(=S)Nc1ccccc1)c1ccccc1)c1ccc(Cl)cc1 | 18.9%
52 | COc1ccc(NC2C=CS(=O)(=O)C2)c(OC)c1 (stereo not drawn) | -2.02%
53 | O=P(O)(c1ccccc1)c1ccccc1O | -7.16%
54 | CCCC(=O)Nc1ccccc1NC(=O)c1ccc2c(c1)OCO2 | 12.4%
55 | COCCNC(=S)N(CCc1c(C)[nH]c2ccc(F)cc12)Cc1cccs1 | 8.34%
56 | c1ccc(Cn2c(Sc3nnnn3-c3ccccc3)nnc2-c2ccccc2)cc1 | -19.6%
57 | O=C(Nc1cc(=O)[nH]c2nc(-c3ccc(Cl)cc3)nn12)c1ccccc1 | 9.56%
58 | CCOc1ccc(C(=O)c2nc3c(n2O)CCCC3)cc1 | 18.5%
59 | COc1ccc(-c2n[nH]c(=S)n2C2CCCCC2)cc1 | 20.2%
60 | COc1ccccc1CNC(=O)C(Cc1c[nH]c2ccccc12)NC(=O)OCc1ccccc1 (stereo not drawn) | -9.86%
61 | CCOc1c(Cl)cc(/C=C/C(=O)N(CC)CC(=O)NCc2cccs2)cc1OC | -55.4%
62 | CCOC(=O)c1ccc(Nc2sc(C(=O)c3cccc([N+](=O)[O-])c3)c(N)c2C#N)cc1 | 14.7%
63 | CCN1CCN(C(=O)Nc2ccccc2OC)CC1.O=C(O)C(=O)O | 11%
64 | CC(C)(C)C(O)CN1CCCC1.Cl (stereo not drawn) | -5.14%
65 | O=Cc1ccc(N2CCCCC2)cc1 | 6.5%
66 | CCNC(=S)N(CCCN(CC)CC)Cc1cc2cc3c(cc2[nH]c1=O)OCO3 | 1.75%
67 | CCOC(=O)C1CCN(C(=O)CCc2nnc3ccc(N4CCC(C)CC4)nn23)CC1 | -31%
68 | O=C(NCCN1CCN(S(=O)(=O)c2ccccc2)CC1)C(=O)Nc1ccc(F)cc1 | 4.82%
69 | Cn1c(NC(=O)c2ccc(S(=O)(=O)N3CCOCC3)cc2)cc(=O)n(C)c1=O | 21.1%

Row | Compound | hERG current change (%, negative = inhibition) at 10uM
70 | FC(F)Oc1cccc2cccnc12 | 8.31%
71 | c1ccc(Nc2nc(-c3ccccc3)nc3ccccc23)cc1 | 13.3%
72 | COc1ccc(N2CCN(C(=O)Cc3ccc(OC)c(OC)c3)CC2)cc1 | 6.38%
73 | COc1ccc(C2/C(=C(\O)c3cccc(OC)c3)C(=O)C(=O)N2c2ccccn2)cc1 (stereo not drawn) | 0.0512%
74 | Cc1oc(-c2cccs2)nc1CN1CCC(C(=O)N2CCCC2)CC1 | -11.2%
75 | CCOC(=O)c1c(-c2ccccc2)oc2ccc(OCC(=O)NNC(=O)CCC(=O)O)cc12 | 17.6%
76 | O=C(CSc1ncnc2nc[nH]c12)c1ccc2ccccc2c1 | 13.1%
77 | COC(=O)c1cc(C(=O)OCC(=O)NC2CCCCCCC2)cc([N+](=O)[O-])c1 | -7.58%
78 | CC1CCCCN1C(=S)NC(=O)c1cccs1 (stereo not drawn) | 8.08%
79 | Cc1c(NC(=O)c2ccc(-c3cccc([N+](=O)[O-])c3)o2)c(=O)n(-c2ccccc2)n1C | -3.64%
80 | Nc1sc(-c2ccccc2)cc1C(=O)N/N=C/c1ccc(Cl)cc1 | 18.1%
81 | CC1(C)Cc2c(sc3c2C(=O)NC(c2cccnc2)N3)CO1 (stereo not drawn) | 1.61%
82 | CC(C)Oc1ccc(C(=O)Nc2ncn[nH]2)cc1 | 7.72%
83 | COCCN1C(=O)C(=O)/C(=C(/O)c2ccc(S(=O)(=O)N3CCOCC3)cc2)C1c1cccc([N+](=O)[O-])c1 (stereo not drawn) | 14.4%
84 | CCc1cccc(C)c1NC(=S)NCC(c1cccnc1)N(C)C (stereo not drawn) | 5.1%
85 | COc1ccc(C(=O)c2c[nH]c(C(=O)NCC3CCCO3)c2)cc1 (stereo not drawn) | 6.77%
86 | Cc1ccccc1CSc1nnc(-c2ccccn2)n1C | -1.96%
87 | Cc1ccc(-n2c(SCC(=O)NCc3cccs3)nnc2-c2ccoc2C)cc1 | -74.8%
88 | COc1ccc(-c2cc3c(=O)n(CC(=O)N4CCCCC4)ncn3n2)cc1 | 17.1%
89 | COc1ccc2c(c1)C(c1ccc([N+](=O)[O-])cc1)=NNC(c1ccco1)=N2 | -60%
90 | CC(C)n1c(CN2CCN(C)CC2)nc2c1c(=O)n(C)c(=O)n2C | 8.55%
